Results from patent US20210275685A1.

Target: His peptide-tagged soluble cynoADAM9 (cynomolgus monkey)
Assay: ELISA (abs at 450 nm): His-tagged soluble cynoADAM9 (0.5 µg/mL) captured by plate-coated anti-His antibody, serial dilutions of antibody

EC50 (read off the curve): 9 ng/mL
B1: hMAB-A (2I.2)(C) (antibody)
heavy: EVQLVESGGGLVKPGGSLRLSCAASGFTFSSYWMHWVRQAPGKGLEWVGEIIPIFGHTNYNEKFKSRFTISLDNSKNTLYLQMGSLRAEDTAVYYCARGGYYYYPRQGFLDYWGQGTTVTVSSASTKGPSVFPLAPSSKSTSGGTAALGCLVKDYFPEPVTVSWNSGALTSGVHTFPAVLQSSGLYSLSSVVTVPSSSLGTQTYICNVNHKPSNTKVDKRV[human IgG1 Fc with changes not given here]
light: DIVMTQSPDSLAVSLGERATISCKASQSVDYSGDSYMNWYQQKPGQPPKLLIYAASDLESGIPARFSGSGSGTDFTLTISSLEPEDFATYYCQQSHEDPFTFGQGTKLEIKRTVAAPSVFIFPPSDEQLKSGTASVVCLLNNFYPREAKVQWKVDNALQSGNSQESVTEQDSKDSTYSLSSTLTLSKADYEKHKVYACEVTHQGLSSPVTKSFNRGEC
